From the supplement of paper PMC10670038 come the findings set out here.

± gives the standard deviation of the averaged measurements. Shown are results outside the selection of lowest values, which stands elsewhere.

This test has as its system TE10. As to the kind of experiment: relative cell viability vs DMSO, compound alone (fraction); TE10 is an esophageal squamous carcinoma line; higher = less cytotoxic. The settings on record: 2 µM; 48 h. On the procedure: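 TE10 ESCC cells (1,000/well, 384-well plates) were treated with Selleck bioactive library compounds at 2 uM alone for 48 h. Viability was read by CellTiter-Glo and expressed relative to DMSO wells. Two technical replicates (A, B).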
For the compound `CN1C2CCC1CC(OC(=O)C(O)c1ccccc1)C2` (stereo not given) [Homatropine Bromide], the relative cell viability amounted to 1.17 ± 0.075.

Compound `Cc1ccc(C(=O)NCCCCCC(=O)Nc2ccccc2N)cc1` displayed a relative cell viability of 0.919 ± 0.052.

Compound `Cc1nc2c(-c3cnc(N)nc3)nc(N3CCOCC3)nc2n1C(C)C` gave a relative cell viability of 0.431 ± 0.014.

The compound `Cc1ccccc1-n1c(Cn2nc(-c3cccc(O)c3)c3c(N)ncnc32)nc2cccc(C)c2c1=O` registered a relative cell viability of 1.18 ± 0.052.

As to `COC(=O)C(CCCN=C(N)N)NS(=O)(=O)c1ccc(C)cc1` (stereo not given), the relative cell viability was found to be 0.856 ± 0.22.
